This is an account of results in article PMC4336329 (PLoS ONE, 2015).

Hit rate of the full screen: of about 310,000 compounds, about 2,200 (0.71%) showed an effect of 50% or more. Effects have a minus sign here. Some of the results follow.

Chain of human ether-à-go-go-related gene (hERG) potassium channel (Q12809 whole entry, looked up): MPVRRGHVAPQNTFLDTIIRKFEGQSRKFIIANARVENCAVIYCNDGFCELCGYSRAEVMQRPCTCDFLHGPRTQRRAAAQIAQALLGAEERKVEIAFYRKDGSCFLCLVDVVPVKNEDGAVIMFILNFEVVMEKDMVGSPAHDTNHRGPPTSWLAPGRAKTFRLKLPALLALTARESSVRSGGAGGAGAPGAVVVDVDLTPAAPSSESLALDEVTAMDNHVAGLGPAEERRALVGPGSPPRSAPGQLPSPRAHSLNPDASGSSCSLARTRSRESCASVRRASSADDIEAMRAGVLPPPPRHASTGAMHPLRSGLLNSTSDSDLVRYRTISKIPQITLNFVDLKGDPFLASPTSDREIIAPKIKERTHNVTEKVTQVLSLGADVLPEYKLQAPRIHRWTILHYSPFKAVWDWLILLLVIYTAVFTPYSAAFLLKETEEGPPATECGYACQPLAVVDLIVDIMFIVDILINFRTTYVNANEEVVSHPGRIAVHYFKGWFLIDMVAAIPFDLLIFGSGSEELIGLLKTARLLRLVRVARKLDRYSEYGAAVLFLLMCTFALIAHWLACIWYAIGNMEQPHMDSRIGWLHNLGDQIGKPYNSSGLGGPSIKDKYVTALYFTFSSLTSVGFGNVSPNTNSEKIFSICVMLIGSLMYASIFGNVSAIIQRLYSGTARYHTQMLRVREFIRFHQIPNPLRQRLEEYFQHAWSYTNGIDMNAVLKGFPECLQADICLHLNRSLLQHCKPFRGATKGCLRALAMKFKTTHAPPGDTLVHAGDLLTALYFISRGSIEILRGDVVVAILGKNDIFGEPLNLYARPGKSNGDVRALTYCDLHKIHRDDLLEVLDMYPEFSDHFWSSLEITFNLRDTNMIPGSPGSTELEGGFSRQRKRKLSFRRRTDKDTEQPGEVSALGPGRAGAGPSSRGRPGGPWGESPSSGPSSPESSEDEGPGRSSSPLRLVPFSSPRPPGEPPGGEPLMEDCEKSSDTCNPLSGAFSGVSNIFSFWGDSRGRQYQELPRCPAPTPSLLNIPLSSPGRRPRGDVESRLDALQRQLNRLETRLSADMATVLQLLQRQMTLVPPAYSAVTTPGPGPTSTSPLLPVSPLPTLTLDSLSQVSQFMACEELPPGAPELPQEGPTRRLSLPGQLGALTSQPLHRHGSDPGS

The assay concerns the target human ether-à-go-go-related gene (hERG) potassium channel (human, UniProt Q12809). In words: primary screen, population patch clamp on CHO cells stably expressing hERG.
Turning to `COc1cc([C@H]2[C@@H]3CCCC[C@]3(O)CCN2CC(=O)Nc2ccc(C)cc2)ccc1O`, the “hERG current change (%, negative = inhibition) at 1uM” value stood at 10.7%.
On to `CCOc1cccc(OCCOCCN2CCCC2)c1`, for which the “hERG current change (%, negative = inhibition) at 1uM” value was 8.61%.
On to `N#Cc1c(-c2ccc(Cl)cc2)c(C#N)c(=O)n(N)c1N`, for which the “hERG current change (%, negative = inhibition) at 1uM” value came out at 13.9%.
The value for `CC(=O)c1ccc(S(=O)(=O)N2CCC(NC(=O)c3ccccc3)CC2)cc1` was 18.6%; that for `O=C(N/N=C/c1cc(Br)c(O)c(Br)c1)c1cc2c(ccc3ccccc32)o1` was 20.1%.
Then `COc1ccccc1NC(=O)CSc1nc2sc3c(c2c(=O)n1-c1ccccc1)CCN(C)C3`, with 10.5%; and `Cc1ccc(NS(=O)(=O)c2c(C)noc2C)cc1`, with -13.2%.
Regarding `CCOC(=O)c1cc2sc(C)cc2n1CC(=O)N1CCc2ccccc21`, the “hERG current change (%, negative = inhibition) at 1uM” value was found to be 7.63%.
Turning to `COc1ccccc1/C=C1\SC(=S)N(CCC(=O)Nc2nnc(C)s2)C1=O`, the “hERG current change (%, negative = inhibition) at 1uM” value is reported as 9.95%.
As to `O=C(N=C1SC2CS(=O)(=O)CC2N1c1cccc(Cl)c1)C1CCCO1` (stereo not shown), the “hERG current change (%, negative = inhibition) at 1uM” value is recorded as 11.9%.
As to `O=C1CC(c2cccc(Cl)c2)CC(O)=C1C=NCCCO` (stereo not shown), the “hERG current change (%, negative = inhibition) at 1uM” value is recorded as 15.5%.
For `O=C(CSc1nc2ccccc2n1CC(=O)N1CCCCC1)N1CCCCC1`, the “hERG current change (%, negative = inhibition) at 1uM” value is -15.9%.
Regarding `C=CCn1c(=O)/c(=C/c2cc(OC)c(OC)c(OC)c2)s/c1=C(/C#N)c1nc2ccccc2n1C`, the “hERG current change (%, negative = inhibition) at 1uM” value turned out to be 5.67%.
For `CC1CC(C)CN(CC(=O)Nc2ccc(S(N)(=O)=O)cc2)C1` (stereo not shown), the “hERG current change (%, negative = inhibition) at 1uM” value worked out at 11.6%.
For `CC1c2c([nH]c3ccccc23)CCC1C(=O)O` (stereo not shown), the “hERG current change (%, negative = inhibition) at 1uM” value is recorded as 17.7%.
Regarding `CCCCc1nnc(NC(=O)c2ccc(-n3cncn3)c([N+](=O)[O-])c2)s1`, the “hERG current change (%, negative = inhibition) at 1uM” value is given as 2.92%.
As for `Cc1ccc(C23CC4CC(CC(C(=O)NC(C(=O)O)C(C)C)(C4)C2)C3)cc1` (stereo not shown), the “hERG current change (%, negative = inhibition) at 1uM” value is listed as 13.5%.
`O=C(Nc1ccc(C(=O)O)cc1)/C(=C/c1cccc(Br)c1)NC(=O)c1ccco1`: the “hERG current change (%, negative = inhibition) at 1uM” value is -1.32%.
As to `O=S(=O)(c1ccc(F)cc1)N1CCN=C1SCc1cccnc1`, the “hERG current change (%, negative = inhibition) at 1uM” value was found to be 3.86%.
As for `C=CCn1c(-c2ccc(C)cc2)nc2ccccc21`, the “hERG current change (%, negative = inhibition) at 1uM” value is on record as -14.4%.
For the molecule `CCCN(CC(=O)Nc1ccccc1C)C(=O)CCNC(=O)c1ccccc1Cl`, the “hERG current change (%, negative = inhibition) at 1uM” value is reported as 7.83%.
`O=C(O)c1ccc(N/N=C/c2cccc3nccnc23)cc1`: the “hERG current change (%, negative = inhibition) at 1uM” value came out at 13.4%.
Turning to `Cc1ccc(S(=O)(=O)NCCC(=O)N(C)Cc2cccs2)cc1`, the “hERG current change (%, negative = inhibition) at 1uM” value was 6.95%.
The value for `CCOC(=O)N1CCN(Cc2nc3cc(NC(=O)c4ccco4)ccc3n2C)CC1` was 6.57%.
As to `COc1ccc(CCNCC2CCCO2)cc1.Cl` (stereo not shown), the “hERG current change (%, negative = inhibition) at 1uM” value came to 12.6%.
For the molecule `COc1ccc(N2CCN(C(=S)Nc3cccc(C)c3)CC2)cc1`, the “hERG current change (%, negative = inhibition) at 1uM” value is reported as 9.69%.
On to `O=C(Nc1nnc(-c2cccnc2)o1)c1ccccc1Cl`, for which the “hERG current change (%, negative = inhibition) at 1uM” value is on record as 15.4%.
Turning to `CCn1c(/C=C/c2ccc(O)c(O)c2)nc2ccccc2c1=O`, the “hERG current change (%, negative = inhibition) at 1uM” value is listed as 16%.
In the case of `COC(=O)C(Cc1ccccc1)N1CCS(=O)(=O)CC1` (stereo not shown), the “hERG current change (%, negative = inhibition) at 1uM” value was 18.6%.
Take `N#Cc1ccc(S(=O)(=O)N2CCC(N3CCCCC3)CC2)cc1`: the “hERG current change (%, negative = inhibition) at 1uM” value is recorded as -18.3%.
With `COCCNC(=O)c1cc(-c2ccncc2)nc2ccc(S(=O)(=O)N3CCOCC3)cc12`, the “hERG current change (%, negative = inhibition) at 1uM” value is on record as 4.51%.
As to `CCCCNc1nc(=S)n(-c2ccccc2)c(C)c1C(C)=O`, the “hERG current change (%, negative = inhibition) at 1uM” value is reported as 9.18%.
Then `CC1(C)OC(c2ccccc2)=C/C(=C/C=N/NC(=O)c2ccncc2)O1`, with 4.58%; and `Nc1nnc(CC(=O)N/N=C/c2ccccc2OCc2ccc(F)cc2)s1`, with 7.43%; and `CC1=C(C(=O)Nc2ccccn2)C(c2cn(C)nc2C)C2=C(CCCC2=O)N1` (stereo not shown), with 1.74%.
The value for `CC(=O)Oc1cc(C(C)C)c(OCCN(C)C)cc1C.Cl` was 5.88%; that for `CC(C)(C)c1nnc(NC(=O)c2cccnc2)s1` was 14.9%.
In the case of `CN1CCN(/N=C2/C(=O)Nc3ccc([N+](=O)[O-])cc32)CC1`, the “hERG current change (%, negative = inhibition) at 1uM” value worked out at 6.39%.
Regarding `O=CN(/C=C1\Sc2ccccc2C1=O)Cc1ccccc1`, the “hERG current change (%, negative = inhibition) at 1uM” value was 0.0966%.
For `O=C(c1ccccc1)N1CCN(CCc2ccccn2)CC1`, the “hERG current change (%, negative = inhibition) at 1uM” value stood at 16.3%.
For the molecule `Cc1cc(C)c2nc(N3CCC(C(=O)NCc4cccnc4)CC3)sc2c1`, the “hERG current change (%, negative = inhibition) at 1uM” value is given as -50.6%.
Then `CCNC(=S)Nc1cc(OCC)c(NC(=O)c2ccco2)cc1OCC`, with 8.82%; and `Nc1ncc(Br)cc1S(=O)(=O)NCCC(=O)NCCc1ccc(Cl)cc1`, with 9.56%.
Regarding `COC(=O)CCSCC(=O)Nc1cc(C)on1`, the “hERG current change (%, negative = inhibition) at 1uM” value is reported as -1.83%.
In the case of `N#C/C(=C\Nc1ccc2cn[nH]c2c1)c1nc(-c2ccc(Cl)cc2)cs1`, the “hERG current change (%, negative = inhibition) at 1uM” value was found to be 12.2%.
Turning to `Cc1ccccc1NS(=O)(=O)c1cc(C(=O)NCCSC2CCCCC2)ccc1C`, the “hERG current change (%, negative = inhibition) at 1uM” value was determined as 13.5%.
Regarding `CCOc1ccccc1N1CC(C(=O)NNC(=O)c2cc(OC)c(OC)c(OC)c2)CC1=O` (stereo not shown), the “hERG current change (%, negative = inhibition) at 1uM” value is given as 4.35%.
Turning to `Cc1nc(-c2ccccc2O)n(S(=O)(=O)N(C)C)n1`, the “hERG current change (%, negative = inhibition) at 1uM” value was determined as 10.4%.
For the molecule `COc1ccc(S(=O)(=O)N2CCN(CCc3ccccc3)CC2)c(OC)c1`, the “hERG current change (%, negative = inhibition) at 1uM” value is given as 1.14%.
The value for `Cc1ccc(NC2=NCC(=O)N2C2CCCC2)c(C)c1.Cl` was 8.87%.
Consider `COc1ccc(OCc2nnc(SCC(=O)Nc3ccccc3Cl)o2)cc1`, for which the “hERG current change (%, negative = inhibition) at 1uM” value was 11.5%.
Take `O=C(CCSc1nnc(-c2ccco2)o1)Nc1ccc(F)cc1`: the “hERG current change (%, negative = inhibition) at 1uM” value worked out at 17.5%.
Then `O=C(Cc1ccccc1)N/N=C/c1ccccc1OCc1ccc(Cl)cc1`, with 19.4%; and `CCOC(=O)C1=C(COC(=O)/C=C/c2ccccc2Cl)NC(=O)NC1C` (stereo not shown), with 11.1%.
Turning to `CCOc1ccccc1CNC(=O)CCc1cn(CC)c2ccccc12`, the “hERG current change (%, negative = inhibition) at 1uM” value is reported as 12.2%.
As for `CC(C)C(NC(=O)c1ccco1)C(=O)NCc1ccc(C(=O)O)cc1` (stereo not shown), the “hERG current change (%, negative = inhibition) at 1uM” value stood at 17%.
On to `COc1cccc(CSc2nc3ccncc3[nH]2)c1`, for which the “hERG current change (%, negative = inhibition) at 1uM” value was -1.89%.
As to `O=C1C=C(NNC(=O)c2cccnc2)CC(c2ccco2)C1` (stereo not shown), the “hERG current change (%, negative = inhibition) at 1uM” value is listed as 8.64%.
